The values that follow come from publication PMC8630059.

Protein sequences, listed by entry. Tags and fused reporters are not part of them.
UniProt Q96EB6: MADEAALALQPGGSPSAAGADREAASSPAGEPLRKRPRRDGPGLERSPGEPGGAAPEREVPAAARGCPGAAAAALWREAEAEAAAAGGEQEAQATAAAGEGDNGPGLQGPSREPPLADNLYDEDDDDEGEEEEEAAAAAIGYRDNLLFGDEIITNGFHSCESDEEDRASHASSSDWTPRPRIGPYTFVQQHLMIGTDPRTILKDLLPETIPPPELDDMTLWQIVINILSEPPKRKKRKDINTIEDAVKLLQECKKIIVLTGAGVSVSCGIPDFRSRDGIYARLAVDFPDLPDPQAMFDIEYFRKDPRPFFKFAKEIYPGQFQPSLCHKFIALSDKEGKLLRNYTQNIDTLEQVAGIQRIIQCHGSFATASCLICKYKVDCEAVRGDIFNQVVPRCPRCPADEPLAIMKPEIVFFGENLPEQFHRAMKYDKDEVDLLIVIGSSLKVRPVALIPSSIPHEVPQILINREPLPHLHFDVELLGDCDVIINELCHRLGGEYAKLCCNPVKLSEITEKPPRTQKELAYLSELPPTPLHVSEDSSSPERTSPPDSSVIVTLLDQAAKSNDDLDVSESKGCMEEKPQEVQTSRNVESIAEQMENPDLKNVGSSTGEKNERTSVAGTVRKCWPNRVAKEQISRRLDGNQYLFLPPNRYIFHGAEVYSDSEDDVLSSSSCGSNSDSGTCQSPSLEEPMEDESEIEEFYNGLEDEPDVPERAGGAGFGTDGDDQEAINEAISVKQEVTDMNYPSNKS
UniProt Q13619: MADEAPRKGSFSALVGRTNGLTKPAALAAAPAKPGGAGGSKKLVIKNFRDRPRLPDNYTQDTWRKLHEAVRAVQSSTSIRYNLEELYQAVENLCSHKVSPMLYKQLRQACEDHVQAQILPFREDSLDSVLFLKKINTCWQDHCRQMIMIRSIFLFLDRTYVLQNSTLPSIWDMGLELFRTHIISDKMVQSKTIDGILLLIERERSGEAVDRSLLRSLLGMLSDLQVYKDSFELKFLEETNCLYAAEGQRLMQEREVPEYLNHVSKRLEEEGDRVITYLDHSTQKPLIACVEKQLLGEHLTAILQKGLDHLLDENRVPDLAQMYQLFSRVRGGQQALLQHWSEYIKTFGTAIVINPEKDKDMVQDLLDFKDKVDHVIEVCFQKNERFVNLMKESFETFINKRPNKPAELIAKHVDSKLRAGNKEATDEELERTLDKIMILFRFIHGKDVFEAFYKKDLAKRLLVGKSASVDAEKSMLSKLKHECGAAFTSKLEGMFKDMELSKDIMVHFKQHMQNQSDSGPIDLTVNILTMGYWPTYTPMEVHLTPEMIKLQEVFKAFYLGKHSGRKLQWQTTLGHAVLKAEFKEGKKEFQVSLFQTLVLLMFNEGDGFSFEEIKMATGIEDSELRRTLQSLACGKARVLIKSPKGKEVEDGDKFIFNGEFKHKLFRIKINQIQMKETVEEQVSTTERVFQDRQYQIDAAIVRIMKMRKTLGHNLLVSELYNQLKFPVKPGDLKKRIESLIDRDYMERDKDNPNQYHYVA
UniProt Q92769: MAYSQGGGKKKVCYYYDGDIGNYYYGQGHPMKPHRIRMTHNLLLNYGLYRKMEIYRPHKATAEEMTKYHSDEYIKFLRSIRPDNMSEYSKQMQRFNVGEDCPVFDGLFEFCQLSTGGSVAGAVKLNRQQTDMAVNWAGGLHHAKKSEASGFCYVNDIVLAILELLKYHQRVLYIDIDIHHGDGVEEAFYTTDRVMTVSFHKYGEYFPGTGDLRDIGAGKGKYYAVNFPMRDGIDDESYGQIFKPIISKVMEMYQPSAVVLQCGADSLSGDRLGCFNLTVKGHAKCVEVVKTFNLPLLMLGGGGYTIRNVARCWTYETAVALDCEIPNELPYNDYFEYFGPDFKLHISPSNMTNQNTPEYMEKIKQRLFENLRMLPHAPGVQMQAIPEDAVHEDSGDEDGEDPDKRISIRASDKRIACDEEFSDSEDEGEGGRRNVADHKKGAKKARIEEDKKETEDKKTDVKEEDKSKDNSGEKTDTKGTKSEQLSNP
UniProt Q13620: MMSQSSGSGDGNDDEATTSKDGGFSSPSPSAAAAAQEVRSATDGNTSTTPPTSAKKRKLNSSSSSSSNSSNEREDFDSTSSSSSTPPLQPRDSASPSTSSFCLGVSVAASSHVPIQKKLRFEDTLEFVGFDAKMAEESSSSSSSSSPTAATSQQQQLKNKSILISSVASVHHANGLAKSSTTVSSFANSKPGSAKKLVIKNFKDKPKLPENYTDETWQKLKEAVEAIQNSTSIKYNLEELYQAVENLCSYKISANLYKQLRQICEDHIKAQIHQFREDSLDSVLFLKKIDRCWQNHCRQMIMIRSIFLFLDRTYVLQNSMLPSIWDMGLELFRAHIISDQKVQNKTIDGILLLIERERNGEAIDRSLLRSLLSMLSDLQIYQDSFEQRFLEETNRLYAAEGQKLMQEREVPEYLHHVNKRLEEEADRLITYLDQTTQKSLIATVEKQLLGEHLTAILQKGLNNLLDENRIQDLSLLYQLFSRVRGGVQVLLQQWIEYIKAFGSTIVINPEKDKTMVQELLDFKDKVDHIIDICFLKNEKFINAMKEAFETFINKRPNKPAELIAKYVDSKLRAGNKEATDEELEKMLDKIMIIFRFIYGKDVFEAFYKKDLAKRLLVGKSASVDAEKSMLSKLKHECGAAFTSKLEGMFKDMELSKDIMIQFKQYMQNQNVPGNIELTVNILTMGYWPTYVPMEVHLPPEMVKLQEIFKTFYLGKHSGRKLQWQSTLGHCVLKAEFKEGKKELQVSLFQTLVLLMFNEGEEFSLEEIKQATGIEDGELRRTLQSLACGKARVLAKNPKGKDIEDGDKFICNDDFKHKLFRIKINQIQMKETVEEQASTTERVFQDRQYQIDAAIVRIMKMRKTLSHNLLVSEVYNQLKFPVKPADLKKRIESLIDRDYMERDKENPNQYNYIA
UniProt O75530: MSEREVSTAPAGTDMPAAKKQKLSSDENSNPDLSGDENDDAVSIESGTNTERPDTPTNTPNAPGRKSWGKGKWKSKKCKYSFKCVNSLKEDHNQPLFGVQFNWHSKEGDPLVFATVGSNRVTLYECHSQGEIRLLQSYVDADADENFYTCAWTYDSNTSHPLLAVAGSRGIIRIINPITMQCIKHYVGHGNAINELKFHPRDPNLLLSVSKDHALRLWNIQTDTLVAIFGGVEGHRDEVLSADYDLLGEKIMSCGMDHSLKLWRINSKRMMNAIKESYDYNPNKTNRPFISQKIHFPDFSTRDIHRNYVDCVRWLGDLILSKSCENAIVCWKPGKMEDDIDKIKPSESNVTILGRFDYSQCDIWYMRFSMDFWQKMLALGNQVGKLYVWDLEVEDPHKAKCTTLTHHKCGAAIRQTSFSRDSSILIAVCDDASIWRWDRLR
UniProt Q16531: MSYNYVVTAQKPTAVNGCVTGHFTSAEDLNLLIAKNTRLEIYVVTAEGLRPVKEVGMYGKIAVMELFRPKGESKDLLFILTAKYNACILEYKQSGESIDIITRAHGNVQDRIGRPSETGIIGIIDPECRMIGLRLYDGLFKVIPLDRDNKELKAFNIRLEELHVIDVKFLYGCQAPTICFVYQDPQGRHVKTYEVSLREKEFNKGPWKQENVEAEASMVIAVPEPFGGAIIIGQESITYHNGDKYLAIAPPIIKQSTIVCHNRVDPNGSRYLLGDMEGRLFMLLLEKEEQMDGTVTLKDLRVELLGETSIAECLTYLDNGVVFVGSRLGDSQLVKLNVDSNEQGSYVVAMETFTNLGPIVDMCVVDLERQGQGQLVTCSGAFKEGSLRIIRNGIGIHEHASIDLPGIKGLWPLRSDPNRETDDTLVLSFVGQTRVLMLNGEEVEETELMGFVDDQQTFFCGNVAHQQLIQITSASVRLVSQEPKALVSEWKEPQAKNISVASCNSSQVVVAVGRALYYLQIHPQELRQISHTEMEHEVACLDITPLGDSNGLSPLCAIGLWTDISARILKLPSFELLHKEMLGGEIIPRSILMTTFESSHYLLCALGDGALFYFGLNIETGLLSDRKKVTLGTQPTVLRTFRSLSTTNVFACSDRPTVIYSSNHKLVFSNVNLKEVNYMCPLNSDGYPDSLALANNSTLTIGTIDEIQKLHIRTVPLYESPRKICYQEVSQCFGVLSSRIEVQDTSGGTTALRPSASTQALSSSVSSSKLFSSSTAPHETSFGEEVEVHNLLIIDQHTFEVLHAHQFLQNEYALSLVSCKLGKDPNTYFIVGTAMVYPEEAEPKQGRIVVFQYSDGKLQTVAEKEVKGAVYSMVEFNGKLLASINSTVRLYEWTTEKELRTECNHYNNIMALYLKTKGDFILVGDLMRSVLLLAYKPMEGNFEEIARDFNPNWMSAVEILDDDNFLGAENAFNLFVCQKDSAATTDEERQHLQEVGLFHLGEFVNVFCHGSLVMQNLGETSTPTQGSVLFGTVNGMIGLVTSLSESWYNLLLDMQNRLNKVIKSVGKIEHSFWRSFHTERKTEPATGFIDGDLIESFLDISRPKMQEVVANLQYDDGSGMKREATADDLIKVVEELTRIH
UniProt Q13547: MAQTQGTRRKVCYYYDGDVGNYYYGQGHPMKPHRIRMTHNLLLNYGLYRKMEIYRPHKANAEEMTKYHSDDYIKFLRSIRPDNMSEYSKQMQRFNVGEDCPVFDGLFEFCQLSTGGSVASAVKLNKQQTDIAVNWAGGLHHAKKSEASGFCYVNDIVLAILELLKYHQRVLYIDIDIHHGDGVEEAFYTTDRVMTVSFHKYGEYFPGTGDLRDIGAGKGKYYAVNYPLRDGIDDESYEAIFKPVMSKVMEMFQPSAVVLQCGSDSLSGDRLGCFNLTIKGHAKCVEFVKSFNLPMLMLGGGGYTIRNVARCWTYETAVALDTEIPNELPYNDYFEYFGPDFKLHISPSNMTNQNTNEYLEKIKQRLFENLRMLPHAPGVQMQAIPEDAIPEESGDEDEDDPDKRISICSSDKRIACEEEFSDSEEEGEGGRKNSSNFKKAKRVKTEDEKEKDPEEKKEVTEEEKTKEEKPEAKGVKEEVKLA

No constants are given. Whether binding was seen depends on the method and setting. Binding seen in cells or lysates may run through a third protein. Some results given as binding are weak or reduced against the parent protein; the word gives no strength.

Assay [1] has as its target SIRT1 (endogenous) (human (endogenous in PANC-1, AsPC-1, BxPC-3, MIA PaCa-2)) (UniProt Q96EB6). The experiment in a line: co-IP; endogenous proteins; extracts of PANC-1, AsPC-1, BxPC-3 and MIA PaCa-2 cells (50 mM Tris-HCl pH 7.4, 150 mM NaCl, 1 mM EDTA, 0.5% NP-40, 0.25% sodium deoxycholate); IP with anti-SIRT1 and blot for the indicated proteins, or the reverse; 4 °C overnight.

Assay [2] concerns the target FLAG-tagged SIRT1 (human) (UniProt Q96EB6). The assay can be described thus: co-IP; western blot of the fractions purified on anti-FLAG affinity columns from PANC-1 cells stably expressing FLAG-SIRT1. Background: A western blot detects proteins with antibodies after separation by electrophoresis.
A further assay has as its target GST-fused SIRT1 (human) (UniProt Q96EB6). The assay can be described thus: pull-down; about 10 μg GST fusion protein from E. coli BL21 mixed with 5-8 μl in vitro-transcribed/translated product in 0.8% BSA in PBS, room temperature 30 min; Glutathione Sepharose 4B, 4 °C 2 h; western blot; only the target purified.

Regarding “CUL4A (endogenous) (from UniProt Q13619 1-759)”, the binding result in assay [1] and in assay [2] was “no binding” throughout.

As to “HDAC2 (from UniProt Q92769 1-488) (enzyme)”, the binding result in assay [2] is “binds”. In the case of “Cullin 4B (CUL4B) (endogenous) (from UniProt Q13620 1-913)”, the binding result in assay [1] and in assay [2] was “binds” in each case. Consider EED (from UniProt O75530 1-441), for which the binding result in assay [2] was “binds”. With “in vitro-transcribed/translated CUL4B (from UniProt Q13620 1-913)”, in the assay with GST-fused SIRT1 (human), the binding result was “binds”.

“DDB1 (endogenous) (from UniProt Q16531 1-1140)”: the binding result in assay [1] and in assay [2] was “binds” in each case. As to “HDAC1 (from UniProt Q13547 1-482) (enzyme)”, the binding result in assay [2] is reported as “binds”. With “in vitro-transcribed/translated DDB1 (from UniProt Q16531 1-1140)”, the binding result with GST-fused SIRT1 (human) is recorded as “binds”.

B1: SAP30 (protein, UniProt O75446 1-220)
chain: MNGFTPDEMSRGGDAAAAVAAVVAAAAAAASAGNGTGAGTGAEVPGAGAVSAAGPPGAAGPGPGQLCCLREDGERCGRAAGNASFSKRIQKSISQKKVKIELDKSARHLYICDYHKNLIQSVRNRRKRKGSDDDGGDSPVQDIDTPEVDLYQLQVNTLRRYKRHFKLPTRPGLNKAQLVEIVGCHFRSIPVNEKDTLTYFIYSVKNDKNKSDLKVDSGVH
Turning to B1, the binding entry in assay [2] is listed as “binds”.
